Test results from the supplement of paper PMC8948288.
The sequences are guide strands of siRNAs; only the seed at positions 2 to 7 varies.

What was measured:
[1] = tested on: GL261; experiment: cell viability relative to siNT1 (ATP content); H4 human neuroglioma and GL261 mouse glioma; higher = less toxic; settings: siRNA concentration 25 nM; 96 h; mouse
Experimental: (§1)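 Arrayed screen of all 4096 6mer seeds. Each seed sits at guide-strand positions 2-7 of a neutral 19mer siRNA backbone (siNT1-based, passenger strand 2'-O-methyl modified at positions 1-2 to block RISC loading, 3' DNA overhangs). The guide strand is built here as U + seed + ACAUGUAAACCA. Cells were reverse transfected in triplicate in 384-well plates (H4 at 10 nM, GL261 at 25 nM) with Lipofectamine RNAiMAX. Viability was read as ATP content (CellTiter-Glo) 96 h after transfection and normalised to siNT1 (%).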

[2] = tested on: H4; experiment: as above; settings: siRNA concentration 10 nM; 96 h; human
Experimental: as §1
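Also: cells reverse transfected with siRNA duplexes via lipid reagent, ATP read by luminescence, triplicate wells, values scaled to mean viability with non-targeting control siNT1.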

## UAGAGAGACAUGUAAACCA
[1]
  cell viability: 48.6%
[2]
  cell viability: 79.8%

## UAGAGAUACAUGUAAACCA
[1]
  cell viability: 16.9%
[2]
  cell viability: 86.8%

## UAGAGCAACAUGUAAACCA
[1]
  cell viability: 60.3%
[2]
  cell viability: 82.3%

## UAGAGCCACAUGUAAACCA
[1]
  cell viability: 24.4%
[2]
  cell viability: 39.2%

## UAGAGCGACAUGUAAACCA
[1]
  cell viability: 51.6%
[2]
  cell viability: 93%

## UAGAGCUACAUGUAAACCA
[1]
  cell viability: 38.4%
[2]
  cell viability: 67.8%

## UAGAGGAACAUGUAAACCA
[1]
  cell viability: 16.7%
[2]
  cell viability: 86.8%

## UAGAGGCACAUGUAAACCA
[1]
  cell viability: 2.67%
[2]
  cell viability: 51.3%

## UAGAGGGACAUGUAAACCA
[1]
  cell viability: 22.9%
[2]
  cell viability: 88.6%

## UAGAGGUACAUGUAAACCA
[1]
  cell viability: 6.71%
[2]
  cell viability: 61.5%

## UAGAGUAACAUGUAAACCA
[1]
  cell viability: 33%
[2]
  cell viability: 91.2%

## UAGAGUCACAUGUAAACCA
[1]
  cell viability: 26.9%
[2]
  cell viability: 53.2%

## UAGAGUGACAUGUAAACCA
[1]
  cell viability: 34.8%
[2]
  cell viability: 80.8%

## UAGAGUUACAUGUAAACCA
[1]
  cell viability: 30.2%
[2]
  cell viability: 85.1%

## UAGAUAAACAUGUAAACCA
[1]
  cell viability: 52%
[2]
  cell viability: 85.8%

## UAGAUACACAUGUAAACCA
[1]
  cell viability: 30.2%
[2]
  cell viability: 82%

## UAGAUAGACAUGUAAACCA
[1]
  cell viability: 50.8%
[2]
  cell viability: 105%

## UAGAUAUACAUGUAAACCA
[1]
  cell viability: 48.9%
[2]
  cell viability: 114%

## UAGAUCAACAUGUAAACCA
[1]
  cell viability: 50.4%
[2]
  cell viability: 85.9%

## UAGAUCCACAUGUAAACCA
[1]
  cell viability: 19.2%
[2]
  cell viability: 73.2%

## UAGAUCGACAUGUAAACCA
[1]
  cell viability: 56.8%
[2]
  cell viability: 94.7%

## UAGAUCUACAUGUAAACCA
[1]
  cell viability: 34.2%
[2]
  cell viability: 71.1%

## UAGAUGAACAUGUAAACCA
[1]
  cell viability: 54.2%
[2]
  cell viability: 97.4%

## UAGAUGCACAUGUAAACCA
[1]
  cell viability: 20.1%
[2]
  cell viability: 43%

## UAGAUGGACAUGUAAACCA
[1]
  cell viability: 42.7%
[2]
  cell viability: 59%

## UAGAUGUACAUGUAAACCA
[1]
  cell viability: 28.2%
[2]
  cell viability: 88.4%

## UAGAUUAACAUGUAAACCA
[1]
  cell viability: 63.8%
[2]
  cell viability: 93%

## UAGAUUCACAUGUAAACCA
[1]
  cell viability: 54.7%
[2]
  cell viability: 71.4%

## UAGAUUGACAUGUAAACCA
[1]
  cell viability: 67.6%
[2]
  cell viability: 90%

## UAGAUUUACAUGUAAACCA
[1]
  cell viability: 65.3%
[2]
  cell viability: 116%

## UAGCAAAACAUGUAAACCA
[1]
  cell viability: 68.7%
[2]
  cell viability: 115%

## UAGCAACACAUGUAAACCA
[1]
  cell viability: 50.6%
[2]
  cell viability: 104%

## UAGCAAGACAUGUAAACCA
[1]
  cell viability: 73.4%
[2]
  cell viability: 74.9%

## UAGCAAUACAUGUAAACCA
[1]
  cell viability: 52.8%
[2]
  cell viability: 99.2%

## UAGCACAACAUGUAAACCA
[1]
  cell viability: 41.2%
[2]
  cell viability: 87.2%

## UAGCACCACAUGUAAACCA
[1]
  cell viability: 44.9%
[2]
  cell viability: 68.7%

## UAGCACGACAUGUAAACCA
[1]
  cell viability: 53.6%
[2]
  cell viability: 102%

## UAGCACUACAUGUAAACCA
[1]
  cell viability: 26.8%
[2]
  cell viability: 83.1%

## UAGCAGAACAUGUAAACCA
[1]
  cell viability: 63.7%
[2]
  cell viability: 95%

## UAGCAGCACAUGUAAACCA
[1]
  cell viability: 21.2%
[2]
  cell viability: 14.4%

## UAGCAGGACAUGUAAACCA
[1]
  cell viability: 35.3%
[2]
  cell viability: 46.6%

## UAGCAGUACAUGUAAACCA
[1]
  cell viability: 33.1%
[2]
  cell viability: 49.4%

## UAGCAUAACAUGUAAACCA
[1]
  cell viability: 59.2%
[2]
  cell viability: 95.3%

## UAGCAUCACAUGUAAACCA
[1]
  cell viability: 43.3%
[2]
  cell viability: 86%

## UAGCAUGACAUGUAAACCA
[1]
  cell viability: 36.9%
[2]
  cell viability: 106%

## UAGCAUUACAUGUAAACCA
[1]
  cell viability: 51.1%
[2]
  cell viability: 92.6%

## UAGCCAAACAUGUAAACCA
[1]
  cell viability: 63.8%
[2]
  cell viability: 88.1%

## UAGCCACACAUGUAAACCA
[1]
  cell viability: 37%
[2]
  cell viability: 75.9%

## UAGCCAGACAUGUAAACCA
[1]
  cell viability: 42.7%
[2]
  cell viability: 67.4%

## UAGCCAUACAUGUAAACCA
[1]
  cell viability: 45.6%
[2]
  cell viability: 70%

## UAGCCCAACAUGUAAACCA
[1]
  cell viability: 52.8%
[2]
  cell viability: 71.8%

## UAGCCCCACAUGUAAACCA
[1]
  cell viability: 35.6%
[2]
  cell viability: 101%

## UAGCCCGACAUGUAAACCA
[1]
  cell viability: 52.2%
[2]
  cell viability: 85.6%

## UAGCCCUACAUGUAAACCA
[1]
  cell viability: 22.2%
[2]
  cell viability: 94.3%

## UAGCCGAACAUGUAAACCA
[1]
  cell viability: 68.4%
[2]
  cell viability: 72.4%

## UAGCCGCACAUGUAAACCA
[1]
  cell viability: 17.8%
[2]
  cell viability: 35.2%

## UAGCCGGACAUGUAAACCA
[1]
  cell viability: 53.8%
[2]
  cell viability: 48.4%

## UAGCCGUACAUGUAAACCA
[1]
  cell viability: 60.7%
[2]
  cell viability: 63.6%

## UAGCCUAACAUGUAAACCA
[1]
  cell viability: 79.2%
[2]
  cell viability: 93.5%

## UAGCCUCACAUGUAAACCA
[1]
  cell viability: 46.8%
[2]
  cell viability: 26.2%

## UAGCCUGACAUGUAAACCA
[1]
  cell viability: 57.6%
[2]
  cell viability: 69.2%

## UAGCCUUACAUGUAAACCA
[1]
  cell viability: 44.3%
[2]
  cell viability: 41.8%

## UAGCGAAACAUGUAAACCA
[1]
  cell viability: 61%
[2]
  cell viability: 107%

## UAGCGACACAUGUAAACCA
[1]
  cell viability: 42.3%
[2]
  cell viability: 86%

## UAGCGAGACAUGUAAACCA
[1]
  cell viability: 65.5%
[2]
  cell viability: 87.4%

## UAGCGAUACAUGUAAACCA
[1]
  cell viability: 62.5%
[2]
  cell viability: 77.1%

## UAGCGCAACAUGUAAACCA
[1]
  cell viability: 61.3%
[2]
  cell viability: 93.4%

## UAGCGCCACAUGUAAACCA
[1]
  cell viability: 64.3%
[2]
  cell viability: 66.2%

## UAGCGCGACAUGUAAACCA
[1]
  cell viability: 48.1%
[2]
  cell viability: 99.7%

## UAGCGCUACAUGUAAACCA
[1]
  cell viability: 67.5%
[2]
  cell viability: 95.5%

## UAGCGGAACAUGUAAACCA
[1]
  cell viability: 48.3%
[2]
  cell viability: 84.7%

## UAGCGGCACAUGUAAACCA
[1]
  cell viability: 11%
[2]
  cell viability: 24.1%

## UAGCGGGACAUGUAAACCA
[1]
  cell viability: 47.4%
[2]
  cell viability: 36.5%

## UAGCGGUACAUGUAAACCA
[1]
  cell viability: 53.2%
[2]
  cell viability: 33.9%

## UAGCGUAACAUGUAAACCA
[1]
  cell viability: 69.8%
[2]
  cell viability: 113%

## UAGCGUCACAUGUAAACCA
[1]
  cell viability: 56.5%
[2]
  cell viability: 77.4%

## UAGCGUGACAUGUAAACCA
[1]
  cell viability: 64.6%
[2]
  cell viability: 100%

## UAGCGUUACAUGUAAACCA
[1]
  cell viability: 68.6%
[2]
  cell viability: 114%

## UAGCUAAACAUGUAAACCA
[1]
  cell viability: 64.3%
[2]
  cell viability: 91.8%

## UAGCUACACAUGUAAACCA
[1]
  cell viability: 42.9%
[2]
  cell viability: 66.7%

## UAGCUAGACAUGUAAACCA
[1]
  cell viability: 43.2%
[2]
  cell viability: 60.5%

## UAGCUAUACAUGUAAACCA
[1]
  cell viability: 57.5%
[2]
  cell viability: 70.8%

## UAGCUCAACAUGUAAACCA
[1]
  cell viability: 51.6%
[2]
  cell viability: 88%

## UAGCUCCACAUGUAAACCA
[1]
  cell viability: 17.4%
[2]
  cell viability: 34%

## UAGCUCGACAUGUAAACCA
[1]
  cell viability: 46.5%
[2]
  cell viability: 91.6%

## UAGCUCUACAUGUAAACCA
[1]
  cell viability: 18.4%
[2]
  cell viability: 43%

## UAGCUGAACAUGUAAACCA
[1]
  cell viability: 49.9%
[2]
  cell viability: 105%

## UAGCUGCACAUGUAAACCA
[1]
  cell viability: 18.6%
[2]
  cell viability: 31.6%

## UAGCUGGACAUGUAAACCA
[1]
  cell viability: 26.9%
[2]
  cell viability: 9.26%

## UAGCUGUACAUGUAAACCA
[1]
  cell viability: 37.2%
[2]
  cell viability: 67%

## UAGCUUAACAUGUAAACCA
[1]
  cell viability: 66.7%
[2]
  cell viability: 86.7%

## UAGCUUCACAUGUAAACCA
[1]
  cell viability: 21.7%
[2]
  cell viability: 63.7%

## UAGCUUGACAUGUAAACCA
[1]
  cell viability: 44.5%
[2]
  cell viability: 67.1%

## UAGCUUUACAUGUAAACCA
[1]
  cell viability: 37.2%
[2]
  cell viability: 107%

## UAGGAAAACAUGUAAACCA
[1]
  cell viability: 61.7%
[2]
  cell viability: 83.7%

## UAGGAACACAUGUAAACCA
[1]
  cell viability: 40.2%
[2]
  cell viability: 80.7%

## UAGGAAGACAUGUAAACCA
[1]
  cell viability: 64.2%
[2]
  cell viability: 95.2%

## UAGGAAUACAUGUAAACCA
[1]
  cell viability: 60.7%
[2]
  cell viability: 98.7%

## UAGGACAACAUGUAAACCA
[1]
  cell viability: 59.8%
[2]
  cell viability: 79.8%

## UAGGACCACAUGUAAACCA
[1]
  cell viability: 34.2%
[2]
  cell viability: 70.9%

## UAGGACGACAUGUAAACCA
[1]
  cell viability: 52.1%
[2]
  cell viability: 69.5%

## UAGGACUACAUGUAAACCA
[1]
  cell viability: 20.4%
[2]
  cell viability: 76.7%

## UAGGAGAACAUGUAAACCA
[1]
  cell viability: 54.1%
[2]
  cell viability: 78.9%

## UAGGAGCACAUGUAAACCA
[1]
  cell viability: 30.3%
[2]
  cell viability: 8.15%

## UAGGAGGACAUGUAAACCA
[1]
  cell viability: 15%
[2]
  cell viability: 50%

## UAGGAGUACAUGUAAACCA
[1]
  cell viability: 42.5%
[2]
  cell viability: 37.9%

## UAGGAUAACAUGUAAACCA
[1]
  cell viability: 69.2%
[2]
  cell viability: 96.4%

## UAGGAUCACAUGUAAACCA
[1]
  cell viability: 40.1%
[2]
  cell viability: 45.3%

## UAGGAUGACAUGUAAACCA
[1]
  cell viability: 75.6%
[2]
  cell viability: 102%

## UAGGAUUACAUGUAAACCA
[1]
  cell viability: 65.6%
[2]
  cell viability: 80.3%

## UAGGCAAACAUGUAAACCA
[1]
  cell viability: 33.9%
[2]
  cell viability: 67.9%

## UAGGCACACAUGUAAACCA
[1]
  cell viability: 22.8%
[2]
  cell viability: 40%

## UAGGCAGACAUGUAAACCA
[1]
  cell viability: 19.7%
[2]
  cell viability: 47%
